# In the supplement of paper PMC8728848:
# This is one part of the list.
# What was measured:
# Assay in all cases: glycan array binding signal (z-score within array); higher = stronger binding
# Conditions in all cases: glycan notation: IUPAC condensed, linker removed
# [1] = molecular target: Gal(b1-4)GalNAc(b1-3)[Fuc(a1-2)]Gal(b1-4)GlcNAc
# Procedure, shortened: (§1)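 Glycan array data came from 3228 arrays in the Consortium for Functional Glycomics database, and only arrays with an available protein sequence were kept. Glycan names were put into IUPAC-condensed notation, and columns mapping to the same glycan were averaged. The binding signal is a within-array Z-score, averaged across arrays of one protein sequence run at different concentrations or buffers and across linkers. A negative Z-score can be read as non-binding.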
# Gal(b1-4)Glc = molecular target: Gal(b1-4)Glc
# Procedure, shortened: as §1
# Gal(b1-4)Glc6S = molecular target: Gal(b1-4)Glc6S
# Procedure, shortened: as §1
# Gal(b1-4)GlcNAc = molecular target: Gal(b1-4)GlcNAc
# Procedure, shortened: as §1
# [2] = molecular target: Gal(b1-4)GlcNAc(a1-6)Gal(b1-4)GlcNAc
# Procedure, shortened: as §1
# Gal(b1-4)GlcNAc(b1-2)Man = molecular target: Gal(b1-4)GlcNAc(b1-2)Man
# Procedure, shortened: as §1
# [3] = molecular target: Gal(b1-4)GlcNAc(b1-2)Man(a1-3)Man(b1-4)GlcNAc(b1-4)GlcNAc
# Procedure, shortened: as §1
# [4] = molecular target: Gal(b1-4)GlcNAc(b1-2)Man(a1-3)[Gal(b1-4)GlcNAc(b1-2)Man(a1-6)]Man(b1-4)GlcNAc(b1-4)GlcNAc
# Procedure, shortened: as §1
# [5] = molecular target: Gal(b1-4)GlcNAc(b1-2)Man(a1-3)[Gal(b1-4)GlcNAc(b1-2)Man(a1-6)]Man(b1-4)GlcNAc(b1-4)[Fuc(a1-6)]GlcNAc
# Procedure, shortened: as §1
# [6] = molecular target: Gal(b1-4)GlcNAc(b1-2)Man(a1-3)[Gal(b1-4)GlcNAc(b1-2)Man(a1-6)][Gal(b1-4)GlcNAc(b1-4)]Man(b1-4)GlcNAc(b1-4)[Fuc(a1-6)]GlcNAc
# Procedure, shortened: as §1
# [7] = molecular target: Gal(b1-4)GlcNAc(b1-2)Man(a1-3)[Gal(b1-4)GlcNAc(b1-2)Man(a1-6)][GlcNAc(b1-4)]Man(b1-4)GlcNAc(b1-4)[Fuc(a1-6)]GlcNAc
# Procedure, shortened: as §1
# [8] = molecular target: Gal(b1-4)GlcNAc(b1-2)Man(a1-3)[GlcNAc(b1-2)Man(a1-6)]Man(b1-4)GlcNAc(b1-4)GlcNAc
# Procedure, shortened: as §1
# [9] = molecular target: Gal(b1-4)GlcNAc(b1-2)Man(a1-3)[GlcNAc(b1-4)][Gal(b1-4)GlcNAc(b1-2)Man(a1-6)]Man(b1-4)GlcNAc(b1-4)GlcNAc
# Procedure, shortened: as §1
# [10] = molecular target: Gal(b1-4)GlcNAc(b1-2)Man(a1-3)[Man(a1-6)]Man(b1-4)GlcNAc(b1-4)GlcNAc
# Procedure, shortened: as §1
# [11] = molecular target: Gal(b1-4)GlcNAc(b1-2)Man(a1-6)Man(b1-4)GlcNAc(b1-4)GlcNAc
# Procedure, shortened: as §1
# [12] = molecular target: Gal(b1-4)GlcNAc(b1-2)Man(a1-6)[GlcNAc(b1-2)Man(a1-3)]Man(b1-4)GlcNAc(b1-4)GlcNAc
# Procedure, shortened: as §1
# [13] = molecular target: Gal(b1-4)GlcNAc(b1-2)Man(a1-6)[Man(a1-3)]Man(b1-4)GlcNAc(b1-4)GlcNAc
# Procedure, shortened: as §1
# [14] = molecular target: Gal(b1-4)GlcNAc(b1-2)[Gal(b1-4)GlcNAc(b1-4)]Man(a1-3)[Gal(b1-4)GlcNAc(b1-2)Man(a1-6)]Man(b1-4)GlcNAc(b1-4)GlcNAc
# Procedure, shortened: as §1
# [15] = molecular target: Gal(b1-4)GlcNAc(b1-2)[Gal(b1-4)GlcNAc(b1-4)]Man(a1-3)[Gal(b1-4)GlcNAc(b1-2)[Gal(b1-4)GlcNAc(b1-6)]Man(a1-6)]Man(b1-4)GlcNAc(b1-4)GlcNAc
# Procedure, shortened: as §1
# [16] = molecular target: Gal(b1-4)GlcNAc(b1-2)[Gal(b1-4)GlcNAc(b1-4)]Man(a1-3)[GlcNAc(b1-4)][Gal(b1-4)GlcNAc(b1-2)Man(a1-6)]Man(b1-4)GlcNAc(b1-4)GlcNAc
# Procedure, shortened: as §1
# [17] = molecular target: Gal(b1-4)GlcNAc(b1-2)[Gal(b1-4)GlcNAc(b1-4)]Man(a1-3)[GlcNAc(b1-4)][Gal(b1-4)GlcNAc(b1-2)[Gal(b1-4)GlcNAc(b1-6)]Man(a1-6)]Man(b1-4)GlcNAc(b1-4)GlcNAc
# Procedure, shortened: as §1
# [18] = molecular target: Gal(b1-4)GlcNAc(b1-2)[Gal(b1-4)GlcNAc(b1-6)]Man(a1-6)[Gal(b1-4)GlcNAc(b1-2)Man(a1-3)]Man(b1-4)GlcNAc(b1-4)GlcNAc
# Procedure, shortened: as §1
binder,measurement,setting,value
"CFEM-PPl (Pichia pastoris), F2QPV1 (protein) AVATPPACLLACAAEVVKESSDCDALNNIQCICENEGSAIHACLESTCPDGLSSTALQSFEDVCESVGTEANLDE",glycan array binding signal (z-score),[1],-0.003
same,glycan array binding signal (z-score),Gal(b1-4)Glc,-0.08
same,glycan array binding signal (z-score),Gal(b1-4)Glc6S,0.326
same,glycan array binding signal (z-score),Gal(b1-4)GlcNAc,0.157
same,glycan array binding signal (z-score),[2],1.38
same,glycan array binding signal (z-score),Gal(b1-4)GlcNAc(b1-2)Man,-0.245
same,glycan array binding signal (z-score),[3],-0.158
same,glycan array binding signal (z-score),[4],-0.008
same,glycan array binding signal (z-score),[5],-0.256
same,glycan array binding signal (z-score),[6],-0.173
same,glycan array binding signal (z-score),[7],-0.177
same,glycan array binding signal (z-score),[8],-0.131
same,glycan array binding signal (z-score),[9],-0.371
same,glycan array binding signal (z-score),[10],-0.148
same,glycan array binding signal (z-score),[11],-0.286
same,glycan array binding signal (z-score),[12],-0.271
same,glycan array binding signal (z-score),[13],-0.179
same,glycan array binding signal (z-score),[14],0.162
same,glycan array binding signal (z-score),[15],0.132
same,glycan array binding signal (z-score),[16],0.051
same,glycan array binding signal (z-score),[17],0.16
same,glycan array binding signal (z-score),[18],-0.024
